Test results taken from PubChem BioAssay AID485281 (National Center for Advancing Translational Sciences (NCATS), 2010).
The campaign covered roughly 350,000 compounds. About 260 (0.074%) were called active. This list was built around the results that the source calls inconclusive (neither active nor inactive); the mix of calls is not that of the screen. The call rests on the fitted dose curve; in most records, active means well fitted inhibition curve with a large enough effect; inconclusive means small, poorly fitted or top-dose-only effect; inactive means no such curve, though single readings can be large or run the other way. Where the call is inconclusive, the potency comes from a doubtful curve fit.

target: Ferritin light chain (Equus caballus) (UniProt P02791); experiment: qHTS Assay for Identification of Novel General Anesthetics; conditions: apoferritin/1-aminoanthracene competitive binding, fluorescence; activity change, negative = displacement: at 77.5 µM (top of the series); further: nearly all actives have a fitted effect of over 20% in size
Method in brief: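 Apoferritin-based anesthetic binding model; compound displacement of fluorescent 1-AMA measured as endpoint fluorescence after 10 minutes at room temperature, scaled to free-ligand and complex controls.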
On the % scale 0 is the no-effect control and ±100 the full control effect; potency means the concentration at half of the fitted maximal effect; tags describe the fitted curve by direction and shape.

Chain of UniProt P02791 (P02791 whole entry, looked up): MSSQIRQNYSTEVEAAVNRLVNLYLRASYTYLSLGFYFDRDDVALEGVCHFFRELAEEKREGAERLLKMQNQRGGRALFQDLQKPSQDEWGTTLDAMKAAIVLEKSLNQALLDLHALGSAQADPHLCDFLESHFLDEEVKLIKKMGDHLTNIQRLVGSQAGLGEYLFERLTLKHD

SMILES	Potency	activity change, negative = displacement
CC(C)c1ccc(NC(=O)CS(=O)(=O)c2cccc3nsnc23)cc1	inconclusive: 22.4 µM [inhibitor, partial curve]	
O=C(NCCCN1CCOCC1)c1ccc(CSc2ccc(Cl)cc2)cc1	inconclusive: 20 µM [inhibitor, partial curve]	
CCCOC(=O)CCn1c(=S)oc2ccccc21	inconclusive: 31.6 µM [inhibitor, partial curve]	
CC(=O)N1CCN(c2nc(CC(C)C)c3c(c2C#N)CCC3)CC1		inactive: -19.8%
CCC(NC(=O)c1cc(COc2ccc(F)cc2Cl)on1)c1ccncc1 (stereo not given)	inconclusive: 17.8 µM [inhibitor, partial curve]	
Cc1cccc(NC(=O)CN2C(=O)S/C(=C\c3ccc(O)c([N+](=O)[O-])c3)C2=O)c1	inconclusive: 35.5 µM [inhibitor, single point]	
c1ccc(Cc2c[nH]c3ccccc23)cc1	inconclusive: 22.4 µM [inhibitor, partial curve]	
c1csc(CCNc2ncnc3sc4c(c23)CCC4)c1		inactive: -8.26%
COc1ccc(CCCC(=O)NCC(=O)N/N=C/c2cc(Cl)ccc2OC)cc1	inconclusive: 28.2 µM [inhibitor, partial curve]	
O=C(Cc1c(F)cccc1Cl)c1ccc(O)cc1O	inconclusive: 17.8 µM [inhibitor, partial curve]	
CC1CCCC(C)N1C(=O)COC(=O)c1cc(Br)ccc1Cl (stereo not given)	inconclusive: 15.8 µM [inhibitor, partial curve]	
CCCC1=Nc2cc(C(=O)NC3CCCC3)ccc2Sc2ccc(C)cc21	inconclusive: 14.1 µM [inhibitor, partial curve]	
COC(=O)c1ccc(C2=NOC(C)(c3sc(-c4ccc(Cl)cc4)nc3C)C2)cc1 (stereo not given)		inactive: -9.12%
Cc1ccc(S(=O)(=O)N2CCCCC2)cc1NC(=O)COC(=O)CNC(=O)c1cc(Cl)cc([N+](=O)[O-])c1	inconclusive: 25.1 µM [inhibitor, single point]	
COc1ccc2[nH]c(=O)c(CN(c3ccccc3)S(=O)(=O)c3ccccc3)cc2c1		inactive: -15.1%
Cc1c(C)c2c(cc(C)c3c(-c4ccccc4)coc32)oc1=O		inactive: 1.09%
Clc1ccc(Oc2cccc(/C=N/n3cnnc3)c2)cc1	inconclusive: 28.2 µM [inhibitor, partial curve]	
O=C(O)c1cccc(NC(=S)NC(=O)c2ccc(-c3ccccc3)cc2)c1		inactive: -21.1%
Fc1ccc(-n2cc(-c3ccccc3)c3c(NN4CCOCC4)ncnc32)cc1	inconclusive: 31.6 µM [inhibitor, partial curve]	
CC/C(C)=N\NC(=O)CNC(=O)c1ccc(Cl)cc1Cl	inconclusive: 8.91 µM [inhibitor, partial curve]	
CSCC[C@H](NC(=O)[C@H](CC(C)C)NC(=O)CNC(=O)[C@H](Cc1ccccc1)NC(=O)[C@H](Cc1ccccc1)NC(=O)[C@H](CCC(N)=O)NC(=O)[C@H](CCC(N)=O)NC(=O)[C@@H]1CCCN1C(=O)[C@H](CCCCN)NC(=O)[C@@H]1CCCN1C(=O)[C@H](CCCN=C(N)N)NC(=O)CCCCC1SCC2NC(=O)NC21)C(N)=O (stereo not given in full)		inactive: -3.65%
COc1cc(O)c2c(c1)OC(c1ccc(O)cc1)CC2=O (stereo not given)	inconclusive: 31.6 µM [inhibitor, partial curve]	

SMILES	Potency	activity change, negative = displacement
O=C(NC(=S)NCCC1=CCCCC1)c1cccnc1	inconclusive: 28.2 µM [inhibitor, partial curve]	
CCC(C)(C)C(=O)Nc1cc([N+](=O)[O-])ccc1Cl	inconclusive: 28.2 µM [inhibitor, single point]	
O=C1Nc2ccccc2/C1=C/c1cnc(-c2ccccc2)[nH]1	inconclusive: 31.6 µM [inhibitor, partial curve]	
COc1cccc(-n2cc(C(=O)NCCc3ccc(C)cc3)c3ccccc3c2=O)c1	inconclusive: 50.1 µM [inhibitor, single point]	
Cc1ccc(C(=O)NC2CCCCCCC2)c(Cl)c1	inconclusive: 22.4 µM [inhibitor, partial curve]	
COC(=O)NCC1(C)CC(NC(=O)OC)CC(C)(C)C1 (stereo not given)	inconclusive: 20 µM [inhibitor, single point]	
COc1ccccc1N1CCN(C(=O)CCCNC(=O)Cn2cnc3sc(C)c(C)c3c2=O)CC1		inactive: -14%
CCN1CCc2c(sc(NC(=O)C3CCCCC3)c2C(=O)OC)C1	inconclusive: 17.8 µM [inhibitor, partial curve]	
c1cnc2c(OCc3cn4cccnc4n3)cccc2c1	inconclusive: 39.8 µM [inhibitor, partial curve]	
CN1CCc2nc(SCc3ccc(C(C)(C)C)cc3)c(C#N)cc2C1	inconclusive: 39.8 µM [inhibitor, partial curve]	
CCOC(=O)/C(=C\c1cccnc1)C(=O)c1cc(C(C)=O)c(Nc2ccccc2)s1	inconclusive: 35.5 µM [inhibitor, single point]	
O=C(O)CC(C(=O)O)c1cn(Cc2ccccc2)c2ccccc12 (stereo not given)		inactive: -17.3%
CCCCS(=O)(=O)c1oc(-c2cccs2)nc1S(=O)(=O)c1ccccc1	inconclusive: 11.2 µM [inhibitor, partial curve]	
COc1ccc(C(=O)Nc2ccc(-c3ccc(C)o3)cc2)cc1S(=O)(=O)N1CCOCC1		inactive: 4.98%
O=C(c1ccccc1F)c1cc2c(cc1[N+](=O)[O-])OCCO2	inconclusive: 31.6 µM [inhibitor, partial curve]	
CC(C)(C)c1ccc(C(=O)NCCc2csc3nc(-c4ccccc4F)nn23)cc1	inconclusive: 50.1 µM [inhibitor, single point]	
Cc1ccccc1CS(=O)(=O)c1nnc([C@H](CC(C)C)NC(=O)OC(C)(C)C)o1	inconclusive: 35.5 µM [inhibitor, partial curve]	
O=C(Nc1ccccc1C(=O)NCc1ccccc1)c1ccccc1		inactive: -13.1%
N=C1SC(CC(=O)Nc2ccc([N+](=O)[O-])cc2)C(=O)N1c1ccccc1 (stereo not given)	inconclusive: 50.1 µM [inhibitor, single point]	
Cc1nc([N+](=O)[O-])c(Br)n1Cc1ccc(Cl)c(Cl)c1	inconclusive: 31.6 µM [inhibitor, partial curve]	
COc1ccc(OCc2cc(C(=O)N3CCN(C4CCCC4)CC3)no2)c(Cl)c1	inconclusive: 31.6 µM [inhibitor, partial curve]	
O=C(O)Cn1nnc(-c2ccc(OCc3cccc(C(F)(F)F)c3)cc2)n1	inconclusive: 8.91 µM [inhibitor, partial curve, poor fit]	

SMILES	Potency	activity change, negative = displacement
Nc1cc(N)nc(SCCc2ccccc2)n1	inconclusive: 25.1 µM [inhibitor, single point]	
Cn1c(=O)c2c(-c3ccc(Cl)cc3)n(Cc3ccccc3)cc2n(C)c1=O	inconclusive: 28.2 µM [inhibitor, partial curve]	
Cc1ccc(C2=NN(CC(=O)NCc3cccs3)C(=O)CC2)cc1	inconclusive: 5.62 µM [inhibitor, full curve]	
CCOC(=O)c1cc(S(=O)(=O)Nc2ccc(C)cc2Cl)[nH]n1		inactive: -1.46%
N/C(=N\OC(=O)COc1ccc(Cl)cc1Br)c1ccncc1	inconclusive: 35.5 µM [inhibitor, single point]	
CC(=O)Nc1ccc(S(=O)(=O)N2CCN(C3CCCCCCC3)CC2)cc1	inconclusive: 35.5 µM [inhibitor, partial curve]	
COc1cccc(OCc2cc(C(=O)N(C)Cc3nc(C)cs3)no2)c1	inconclusive: 15.8 µM [inhibitor, partial curve]	
CCCCCc1ccc(CC(=O)O)cc1	inconclusive: 39.8 µM [inhibitor, partial curve]	
O=C(O)c1nn(CC(=O)N2CCN(c3ncc(C(F)(F)F)cc3Cl)CC2)c(=O)c2ccccc12	inconclusive: 10 µM [inhibitor, full curve]	
Cc1ccccc1NC(=O)c1nc(S(C)(=O)=O)ncc1Cl		inactive: -4.3%
NC(=S)N/N=C/c1ccc(-c2cccc([N+](=O)[O-])c2)o1	inconclusive: 31.6 µM [inhibitor, partial curve]	
O=C(CNC(=O)c1ccccc1F)OCc1csc(-c2ccccc2)n1	inconclusive: 28.2 µM [inhibitor, partial curve]	
CCCCNC(=S)N=Nc1c(O)[nH]c2ccccc12	inconclusive: 35.5 µM [inhibitor, partial curve]	
COc1ccc(OC)c(S(=O)(=O)n2nc(-c3ccccc3)cc2N)c1	inconclusive: 7.08 µM [inhibitor, full curve]	
COc1cccc(NS(=O)(=O)c2ccc3c(c2)C2C=CCC2C(c2ccc(C(=O)O)cc2)N3)c1 (stereo not given)		inactive: -5.74%
COc1cccc(CNc2nc3ccccc3n2CCN2CCCCC2)c1	inconclusive: 39.8 µM [inhibitor, partial curve]	
CCN(CC)C(=O)C1CCN(S(=O)(=O)c2c(C)noc2/C=C/c2cccc(C)c2)CC1	inconclusive: 31.6 µM [inhibitor, partial curve]	
COc1cccc(O)c1CN1CCC(C(=O)Nc2ccc(-c3cccc(C)c3)cc2)CC1	inconclusive: 28.2 µM [inhibitor, partial curve]	
CCOc1ccc(NC(=O)NNC(=O)C2CCC(C(C)(C)C)CC2)cc1 (stereo not given)	inconclusive: 7.08 µM [inhibitor, partial curve]	
Cc1nc(NCCc2ccccc2)sc1C(=O)N(C)C	inconclusive: 50.1 µM [inhibitor, single point]	
CC(OC(=O)c1cc(=O)[nH]c2ccccc12)c1ccccc1 (stereo not given)	inconclusive: 25.1 µM [inhibitor, single point]	
